{"source": "the supplement of paper PMC12645437", "about": "“Orthogonal IMiD-Degron Pairs Induce Selective Protein Degradation in Cells” (ACS Chemical Biology, 2025)", "sequences": {"B1": {"name": "Q9UKT9 (peptide)", "chain": "LACPICGFVCTQKGNLLRHIKL"}, "B2": {"name": "Q9UKT9 (peptide)", "chain": "FMCEICGAFFTQKGNLLRHIKL"}, "B3": {"name": "Q9UKT9 (peptide)", "chain": "FVCPICGASFTQKGNLLRHIKL"}, "B4": {"name": "Q9UKT9 (peptide)", "chain": "FQCDQCGACFTQKGNLLRHIKL"}, "B5": {"name": "Q9UKT9 (peptide)", "chain": "FQCSVCGHIFTQKGNLLRHIKL"}, "B6": {"name": "Q9UKT9 (peptide)", "chain": "FICEICGHTFTQKGNLLRHIKL"}, "B7": {"name": "Q9UKT9 (peptide)", "chain": "FMCDQCGACFTQKGNLLRHIKL"}, "B8": {"name": "Q9UKT9 (peptide)", "chain": "FRCEICGRDFTQKGNLLRHIKL"}, "B9": {"name": "Q9UKT9 (peptide)", "chain": "FRCNQCGAAFTQKGNLLRHIKL"}, "B10": {"name": "Q9UKT9 (peptide)", "chain": "FMCDQCGAKFTQKGNLLRHIKL"}, "B11": {"name": "Q9UKT9 (peptide)", "chain": "FCCEQCGATFTQKGNLLRHIKL"}, "B12": {"name": "Q9UKT9 (peptide)", "chain": "FWCDICGADFTQKGNLLRHIKL"}, "B13": {"name": "Q9UKT9 (peptide)", "chain": "FNCDVCGAMFTQKGNLLRHIKL"}, "B14": {"name": "Q9UKT9 (peptide)", "chain": "FECDVCGAKFTQKGNLLRHIKL"}, "B15": {"name": "Q9UKT9 (peptide)", "chain": "FLCNQCGHAFTQKGNLLRHIKL"}, "B16": {"name": "Q9UKT9 (peptide)", "chain": "FGCDQCGANFTQKGNLLRHIKL"}, "B17": {"name": "Q9UKT9 (peptide)", "chain": "FACPQCGAHFTQKGNLLRHIKL"}, "B18": {"name": "Q9UKT9 (peptide)", "chain": "FGCEICGACFTQKGNLLRHIKL"}, "B19": {"name": "Q9UKT9 (peptide)", "chain": "FGCDICGAAFTQKGNLLRHIKL"}, "B20": {"name": "Q9UKT9 (peptide)", "chain": "FKCPICGAPFTQKGNLLRHIKL"}, "B21": {"name": "Q9UKT9 (peptide)", "chain": "FTCNVCGAKFTQKGNLLRHIKL"}, "B22": {"name": "Q9UKT9 (peptide)", "chain": "FACNICGAQFTQKGNLLRHIKL"}, "B23": {"name": "Q9UKT9 (peptide)", "chain": "FHCPVCGADFTQKGNLLRHIKL"}, "B24": {"name": "Q9UKT9 (peptide)", "chain": "FCCPVCGAGFTQKGNLLRHIKL"}, "B25": {"name": "Q9UKT9 (peptide)", "chain": "FFCEQCGAFFTQKGNLLRHIKL"}, "B26": {"name": "Q9UKT9 (peptide)", "chain": "FGCEVCGAHFTQKGNLLRHIKL"}, "B27": {"name": "Q9UKT9 (peptide)", "chain": "FACDICGAQFTQKGNLLRHIKL"}, "B28": {"name": "Q9UKT9 (peptide)", "chain": "FMCEICGHQFTQKGNLLRHIKL"}, "B29": {"name": "Q9UKT9 (peptide)", "chain": "LDCPICGFTCTQKGNLLRHIKL"}, "B30": {"name": "Q9UKT9 (peptide)", "chain": "FNCEQCGAIFTQKGNLLRHIKL"}, "B31": {"name": "Q9UKT9 (peptide)", "chain": "LCCPICGFCCTQKGNLLRHIKL"}, "B32": {"name": "Q9UKT9 (peptide)", "chain": "FYCDQCGAQFTQKGNLLRHIKL"}}, "note": "Some of the results follow.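 Also: jurkat cells carrying a lentiviral library of mutant zinc finger degrons fused to EGFP plus mCherry, mCherry+ cells FACS sorted, degron abundance counted by next-generation sequencing.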"}
{"molecular_target": "no compound (DMSO)", "experiment": "log2 fold change of degron read counts, EGFP-low vs EGFP+ sorted cells; higher = lower degron-EGFP level without compound (poor expression or instability)", "settings": "compound: DMSO control; 18 h"}
{"sequence": "B1", "log2 fold change of degron read counts": 1.04}
{"sequence": "B2", "log2 fold change of degron read counts": -0.888}
{"sequence": "B3", "log2 fold change of degron read counts": -0.367}
{"sequence": "B4", "log2 fold change of degron read counts": -2.34}
{"sequence": "B5", "log2 fold change of degron read counts": 0.436}
{"sequence": "B6", "log2 fold change of degron read counts": -2.15}
{"sequence": "B7", "log2 fold change of degron read counts": -0.723}
{"sequence": "B8", "log2 fold change of degron read counts": -0.973}
{"sequence": "B9", "log2 fold change of degron read counts": -0.418}
{"sequence": "B10", "log2 fold change of degron read counts": -1.32}
{"sequence": "B11", "log2 fold change of degron read counts": -2.06}
{"sequence": "B12", "log2 fold change of degron read counts": -1.12}
{"sequence": "B13", "log2 fold change of degron read counts": -1.05}
{"sequence": "B14", "log2 fold change of degron read counts": -2.03}
{"sequence": "B15", "log2 fold change of degron read counts": -1.18}
{"sequence": "B16", "log2 fold change of degron read counts": -1.3}
{"sequence": "B17", "log2 fold change of degron read counts": -0.171}
{"sequence": "B18", "log2 fold change of degron read counts": -0.642}
{"sequence": "B19", "log2 fold change of degron read counts": -0.161}
{"sequence": "B20", "log2 fold change of degron read counts": 0.231}
{"sequence": "B21", "log2 fold change of degron read counts": -0.772}
{"sequence": "B22", "log2 fold change of degron read counts": -0.834}
{"sequence": "B23", "log2 fold change of degron read counts": -0.709}
{"sequence": "B24", "log2 fold change of degron read counts": 0.309}
{"sequence": "B25", "log2 fold change of degron read counts": 0.437}
{"sequence": "B26", "log2 fold change of degron read counts": -1.33}
{"sequence": "B27", "log2 fold change of degron read counts": -1.37}
{"sequence": "B28", "log2 fold change of degron read counts": -1.42}
{"sequence": "B29", "log2 fold change of degron read counts": 0.429}
{"sequence": "B30", "log2 fold change of degron read counts": -1.6}
{"sequence": "B31", "log2 fold change of degron read counts": 0.866}
{"sequence": "B32", "log2 fold change of degron read counts": -1.13}
